The values that follow come from the RNAGym collection of RNA variant scans (doi:10.7554/elife.90254).

Read counts are not given, so values of variants with three or more changes are uncertain.

To fix the notation:
B1: OR4K15 (parent)
chain: GUUAACGGUCAUAGGCCAUGGAAACUAGGAGCACCAUUUCGCUGCCAGUGAAGAAAUGAACAAAGAAAAUCUGGGCCAGGCAGGCAUCAAAAGAAAUAGUCUUGCGCUCAACCAGAAAGUCUGUAAUCAUUUUAAGGGUA

Variants of B1 are the subject of this data set. In words: self-cleavage, relative activity (ratio to wild type); higher = more cleavage; in vitro, sequencing; the parent is a self-cleaving ribozyme.
For the variant GUUAACGGUCAUAGGCCAUGGGAACUAGGAGCACCUUUUCGCUGCCAUUGAAGAAAUGAACAAAGAAAAUCUGGGCCAGGCAGGCAUCAAAAGAAAUAGUCUUGCGCUCAACCAGAAAGUCUGUAAUCAUUUUAAGGGUA [A22G A36U G48U], the self-cleavage turned out to be 1.15.

Consider GUUAACGGUCAUAGGCCAUGGGAGCUGGGAGCACCAUUUCGCUGCCAGUGAAGAAAUGAACAACGAAAAUCUGGGCCAGGCAGGCAUCAGAAGAAAUAGUCUUGCGCUCAACCAGAAAGUCUGUAAUCAUUUUAAGGGUA [A22G A24G A27G A64C A90G], for which the self-cleavage was 1.18.

For GUUAACGGUCAUAGGCCAUGGGGACUAGGAGCACCAUUCCGCUGCCAGUGAAGAAAUGAACAAAGAAAAUCUGGGCCAGGCAGGCAUCAAAAGAAAUAGUCUUGCGCUCAACCAGAAAGUCUGUAAUCAUUUUAAGGGUA [A22G A23G U39C], the self-cleavage came out at 0.79.

Turning to GUUAACGGUCAUAGGCCAUGGGAGCCAGGAGCACCAUUUCGCUGCCAGUGAAGAAAUGAACAAAGAAAAUCUGGGCCAGGCAGGCAUCAAAAGAAAUAGUCUUGCGCUCAACCAGAAAGUCUGUAAUCAUUUUAAGGGUA [A22G A24G U26C], the self-cleavage amounted to 0.84.

In the case of GUUAACGGUCAUAGGCCAUGGGAACUAGGAGCGCCAUUUCGCUGCCAGUGAAGAAAUGAACAAAGAAUAUCUGGGCCAGGCAGGCAUCAAAAGAAAUAGUCUUGCGCUCAACCAGAAAGUCUGUAAUCAUUUUAAGGGUA [A22G A33G A68U], the self-cleavage was found to be 1.3.

On to GUUAACGGUCAUAGGCCAUGGGAACUAGGAGCGCCAUUUCGCUGCCAGUGAAGAAAUGAACAAAGAAAAUCUGGGCCAGGCAGGCAUCAAAAGAAAUAGUCUUGCGCUCGACCAGAAAGUCUGUAAUCAUUUUAAGGGUA [A22G A33G A110G], for which the self-cleavage came out at 0.15.

Take GUUAACGGUCAUAGGCCAUGGGAACUAGGGGCACCAUUUCGCUGCCAGUGAAGAAAUGAACAAAGAAAAUCUGGGCCAGGCAGGCAUCAAAAGAAAUAGUCCUGCGCUCAACCAGAAAGUCUGUAAUCAUUUUAAGGGUG [A22G A30G U102C A140G]: the self-cleavage was determined as 1.58.

GUUAACGGUCAUAGGCCAUGGGAACUAGGAGCCCCAUUUCGCUGCCAGAGAAGAAAUGAACAAAGAAGAUCUGGGCCAGGCAGGCAUCAAAAGAAAUAGUCUUGCGCUCAACCAGAAAGUCUGUAAUCAUUUUAAGGGUA [A22G A33C U49A A68G]: the self-cleavage came out at 1.27.

With GUUAACGGUCAUAGGCCAUGGGUACUAGGAGCACCAUUUCGCUGCCAGUGAAGAAAUGAACAAAGAAAAUCUGGGCCUGGCAGGCAUCAGAAGAAGUAGUCUUGCGCACAACCAGAAAGUCUGUAAUCAUUUUAAGGGUA [A22G A23U A78U A90G A96G U108A], the self-cleavage was found to be 0.02.

For the variant GUUAACGGUCAUAGGCCAUGGGAACUGGGAGCACCAUUUCGCUGCCAGUGAAGAAACGAACAGAGAAAAUCUGGGCCAGGCAGGCAUCAAAAGAAAUAGUCUUGCGCCCAACCAGAAAGUCUGUAAUCAUUUUAAGGGUA [A22G A27G U57C A63G U108C], the self-cleavage came out at 0.

Regarding GUUAACGGUCAUAGGCCAUGGGAACUAGGAGCGCCAUUUCGCUGCCAGUGAAGAAAUGAACAGAGAACAUCUGGGCCAGGCAGGCAUCGUAAGAAAUAGUCUUGCGCUCAACCAGAAAGUCUGUAAUCAUUUUAAGGGUG [A22G A33G A63G A68C A89G A90U A140G], the self-cleavage came to 0.98.

As to GUUAACGGUCAUAGGCCAUGGGAACUAGGGGCACCAUCUCGCUGCCAGUGAAGAAAUGAACAAAGAAAAUCUGGGCCAGGCAGGCAUCAAAAGAAAUAGUCUUGCGCUCAUCCAGGAAGUUUGUUAUCAUUUUAUGGGUA [A22G A30G U38C A111U A116G C121U A125U A135U], the self-cleavage was determined as 0.16.

On to GUUAACGGUCAUAGGCCAUGGGAACUAGGUGCACCAUUUCGCUGCCAGUGAAGAAAAGAACAAAGAAAAUCUGGGCCAGGCAGGCGUCAAAAGAAAUAGUCUUGCGCUCAACCAGAAAGUCUGUAAUCAUUUUAAGGGUA [A22G A30U U57A A86G], for which the self-cleavage is 0.3.

Consider GUUAACGGUCAUAGGCCAUGGGAACUAGGAGCACCUUUUCGCUGCCAGUGAAGAAAUGAACAAAGAAAAUCUGGGCCAGGCAGGCAUCAAAAGAGAUAGUCUUGCGCUCAACCAGAAAGUCUGUAAUCAUUUUAAGGGUA [A22G A36U A95G], for which the self-cleavage was 1.2.

GUUAACGGUCAUAGGCCAUGGGAGCUAGGAGCACCAUUUCGCUGCCAGUGAAGAAAUGAACAAAGAAAAUCUGGGCCAGGCAGGCGUCAAAAGAAAUAGUCUUGCGCUCAACCAGAAAGUCUGUAAUCAUUUUAAGGGUA [A22G A24G A86G]: the self-cleavage worked out at 1.23.

In the case of GUUAACGGUCAUAGGCCAUGGGGACUAGGAGCACCAUUUCGCUGCCAGCGAAGAAAUGAACAAAGAAAAUCUGGGCCAGGCAGGCAUCAAAAGAAAUAGUCUUGCGCUCAACCAGAAAGUCUGUAAUCAUCUUAAGGGUA [A22G A23G U49C U131C], the self-cleavage was found to be 0.29.

On to GUUAACGGUCAUAGGCCAUGGGAACUAGGGGCACCAUUUCGCUGCCAGUGAGGAAACGAACAAAGAAAAACUGGGCCAGGCGGGCAUCAAUAGAAAUAGUCUUGCGCUCAACCAGAAAGUCUGUAAUCAUUUUAAGGGUA [A22G A30G A52G U57C U70A A82G A91U], for which the self-cleavage amounted to 0.2.

With GUUAACGGUCAUAGGCCAUGGGAACUAGGAGCUCCAUUUCGCUGCCAGUGAAGAAAUGAACAAAGAAAAUCUGGGCCAGGCAGGCAUCAAAAGAAAUAGUCUUGCGCUCAACCAGAAAGUCUGUAGUCAUUUUAAGGGUA [A22G A33U A126G], the self-cleavage was determined as 0.44.

With GUUAACGGUCAUAGGCCAUGGGAACUAGGAGCACCAUUUCGCUGCCGGUGGAGAAAUGAACAAAGAAAAUCUGGGCCAGGCAGGCAUCAAGAGAAAUAGUCUUGCGCUCAUCCAGAAAGUCUGUAAUCAUUUUAAGGGUA [A22G A47G A51G A91G A111U], the self-cleavage is 0.09.

With GUUAACGGUCAUAGGCCAUGGGAACUAGGGGCACCAUUUCGCUGCCAGUGAAGAAAUGAACAAAGAAAAUCUGGGCCAGGCAGGCAUCAAAAGAAAUGGUCUUGCGCUCAACCAGAAAGUCUGUAAUCAUUUUAAGGGUA [A22G A30G A98G], the self-cleavage came to 0.67.
